In all, about 310,000 compounds went through this assay and about 2,200 (0.71%) showed an effect of 50% or more. Effects have a minus sign here. Some of the results follow.
target: human ether-à-go-go-related gene (hERG) potassium channel (human, UniProt Q12809); test: primary screen, population patch clamp on CHO cells stably expressing hERG
Sequence (Q12809 whole entry, looked up): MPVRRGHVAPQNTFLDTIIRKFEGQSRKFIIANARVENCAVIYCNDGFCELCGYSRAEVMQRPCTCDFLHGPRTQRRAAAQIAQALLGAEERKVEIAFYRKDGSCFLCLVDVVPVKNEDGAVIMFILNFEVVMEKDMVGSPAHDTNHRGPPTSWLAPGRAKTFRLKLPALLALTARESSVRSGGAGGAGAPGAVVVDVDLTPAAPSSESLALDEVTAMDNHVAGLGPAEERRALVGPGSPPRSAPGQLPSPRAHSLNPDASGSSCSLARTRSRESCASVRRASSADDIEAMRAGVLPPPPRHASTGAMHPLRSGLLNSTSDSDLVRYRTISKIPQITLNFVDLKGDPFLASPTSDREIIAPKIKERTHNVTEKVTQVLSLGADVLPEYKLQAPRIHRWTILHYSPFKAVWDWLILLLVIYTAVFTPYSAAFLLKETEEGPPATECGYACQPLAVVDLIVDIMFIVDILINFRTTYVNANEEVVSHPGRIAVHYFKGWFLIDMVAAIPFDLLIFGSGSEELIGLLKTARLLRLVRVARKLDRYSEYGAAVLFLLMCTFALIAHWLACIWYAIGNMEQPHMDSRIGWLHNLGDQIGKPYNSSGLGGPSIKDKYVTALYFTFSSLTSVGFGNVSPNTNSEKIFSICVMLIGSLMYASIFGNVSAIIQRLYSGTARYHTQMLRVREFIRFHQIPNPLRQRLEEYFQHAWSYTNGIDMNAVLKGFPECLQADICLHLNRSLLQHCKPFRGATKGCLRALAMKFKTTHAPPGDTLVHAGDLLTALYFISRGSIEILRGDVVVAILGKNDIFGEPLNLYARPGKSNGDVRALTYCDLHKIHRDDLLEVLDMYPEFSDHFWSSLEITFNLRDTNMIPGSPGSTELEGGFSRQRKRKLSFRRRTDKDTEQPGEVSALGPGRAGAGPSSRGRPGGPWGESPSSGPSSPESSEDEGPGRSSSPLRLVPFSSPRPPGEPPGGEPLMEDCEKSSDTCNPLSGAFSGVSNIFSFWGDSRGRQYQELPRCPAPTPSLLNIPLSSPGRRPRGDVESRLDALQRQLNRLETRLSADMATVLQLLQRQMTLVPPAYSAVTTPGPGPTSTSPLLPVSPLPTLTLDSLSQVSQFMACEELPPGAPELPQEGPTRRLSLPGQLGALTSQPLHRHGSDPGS

Row | Structure (SMILES) | hERG current change (%, negative = inhibition) at 1uM
1 | CCOC(=O)C(C)n1cnc2c(oc3ccccc32)c1=O (centres unmarked) | 9.75%
2 | O=C(NC1CC1)C1CCN(C2CCN(C(=O)c3ccc4cccc(F)c4n3)CC2)CC1 | 4.34%
3 | NS(=O)(=O)c1ccc(-c2ccc(/C=C3\NC(=S)NC3=O)o2)cc1 | 9.62%
4 | COc1ccc(-c2nc(CN3CCN(c4cc(C)nc(C)c4)CC3)c(C)o2)c2ccccc12 | -12.4%
5 | COc1ccc(N(CC(=O)NCCSCc2cccc(Cl)c2)S(C)(=O)=O)cc1Cl | 7.16%
6 | COCCN(CCOC)C(=O)Nc1ccc(Cl)cc1 | -0.242%
7 | CNC(=S)NNC(=O)c1sccc1OCc1ccc(C)cc1 | 2.12%
8 | Cc1cccc(C)c1NC(=O)CS(=O)CC(=O)NCCCc1ccccc1 (centres unmarked) | 10.2%
9 | COc1cccc(-c2nnc(-c3ccc(C)o3)o2)c1 | 2.38%
10 | CCCc1nc2oc3c(NCCN4CCOCC4)ncnc3c2c2c1CCCC2 | 9.2%
11 | COc1cc(/C=N/NC(=S)Nc2cccnc2)cc(OC)c1OC | 5.16%
12 | CC(=O)c1sc(NC(=O)c2ccc(Cl)cc2)nc1C | 10.7%
13 | CCOc1cc(S(=O)(=O)NCc2ccccn2)c(C)cc1C | -16.2%
14 | CCOCc1nnc(NC(=O)c2cc(OC)cc(OC)c2)s1 | 14.7%
15 | CCCn1nnc(NC(=O)COc2cc(C)ccc2C(C)C)n1 | -2.78%
16 | Fc1cccc(-c2csc(-c3ccno3)n2)c1 | 11.1%
17 | O=C1c2ccccc2C(=O)C1c1ccc2ccccc2n1 | 4.78%
18 | CCCN1CCN(c2nc3c([nH]2)c(=N)ncn3CC(O)CO)CC1 (centres unmarked) | 18.3%
19 | O=C(c1c(F)cccc1F)N1CCN(S(=O)(=O)c2ccc3c(c2)OCCO3)CC1 | 18.9%
20 | O=C(Nc1cc(C(F)(F)F)ccc1Cl)C(Sc1n[nH]c(=O)[nH]c1=O)c1ccccc1 (centres unmarked) | 8.07%

Row | Structure (SMILES) | hERG current change (%, negative = inhibition) at 1uM
21 | CNC(=S)N1N=C(c2ccccc2)CC1c1ccc(Br)cc1 (centres unmarked) | 2.67%
22 | O=C(CSc1ccc2ccccc2c1)NCCc1ccc(O)c(O)c1 | 5.01%
23 | CCN1CNC(=S)N(CCc2ccccc2)C1 | 7.18%
24 | CCOC(=O)/N=C(/NC(=O)Nc1ccc(C(=O)OCC)cc1)OC | 4.77%
25 | CCC(O)c1cc2c(cc1NC(=O)c1ccc(C)cc1)OCCO2 (centres unmarked) | 6.5%
26 | Cc1c(C(=O)NC2CCCc3ccccc32)oc2ccccc12 (centres unmarked) | 6.98%
27 | COc1ccc(C)cc1NC(=O)N1CCC(CO)(CC2CCCCO2)CC1 (centres unmarked) | 6.36%
28 | CCOc1ccc(N2CC(C(=O)NCCN3C(=O)S/C(=C\c4ccc(OC)cc4)C3=O)CC2=O)cc1 (centres unmarked) | 9.86%
29 | Cc1cc([N+](=O)[O-])ccc1NC(=O)C(C)NC1CCCCC1 (centres unmarked) | 10.9%
30 | Cc1c(NC(=O)/C(=C/c2cccs2)c2cccs2)c(=O)n(-c2ccccc2)n1C | 5.43%
31 | O=C(NCc1n[nH]c(=S)n1-c1ccccc1)c1cccs1 | 4.29%
32 | Cc1ccc(S(=O)(=O)N(C)C)cc1NC(=O)COC(=O)c1c(-c2ccccc2)noc1C | -0.737%
33 | C=CCn1c(SCC(=O)Nc2ccc(NC(=O)c3ccco3)c(OC)c2)nnc1-c1ccncc1 | 5.01%
34 | O=C(CSc1ccsc1[N+](=O)[O-])N1CCCCC1 | 2.07%
35 | CN(C)/C=N/NC(=O)c1ccccc1 | 13.2%
36 | C(=C\c1ccc2ccccc2n1)/c1ccccc1 | 12.6%
37 | CCOC(=O)C1CCN(C(=O)CC(C)c2ccccc2)CC1 (centres unmarked) | 9.59%
38 | COc1cccc(-n2nc3c(=O)n(Cc4ccccc4Cl)nc(C)c3c2C)c1 | 17.2%
39 | O=C(Nc1ccc2c(c1)OCO2)c1cc(C2CC2)on1 | 17.5%
40 | COc1ccc2c3n([n+]([O-])c2c1)CCN=C3c1ccc(Cl)cc1 | 1.64%

Row | Structure (SMILES) | hERG current change (%, negative = inhibition) at 1uM
41 | Cc1ccnc(SCC(=O)Nc2sccc2C#N)n1 | 12.7%
42 | COc1cccc(C(=O)NCC(=O)N/N=C/c2cn[nH]c2-c2ccccc2)c1 | -6.97%
43 | O=C(Nc1cccnc1)c1ccc(COc2ccccc2Br)cc1 | 11.2%
44 | CN1CC(C#N)C2(O)c3ccccc3CCC2C1 (centres unmarked) | 13.6%
45 | Cc1ccc(Cl)c(OC(=O)Cn2cnc3c2c(=O)n(C)c(=O)n3C)c1 | 14.9%
46 | COc1ccc(Cc2nnc(NC(=O)Nc3ccc(F)cc3)s2)cc1OC | 10.7%
47 | CCOc1ccccc1N1CCN(C(=O)CCNS(=O)(=O)c2ccccc2F)CC1 | 17.6%
48 | Cc1ccc(C)c(OCc2nc(-c3cccnc3)no2)c1 | 6.88%
49 | Cc1ccc(C(=O)Nc2cccnc2)cc1S(=O)(=O)N1CCCCCC1 | 10.9%
50 | C=CCOc1ccccc1CN1CCN(CCc2ccccc2)C(CCO)C1 (centres unmarked) | -24.3%
51 | CCN1CCN(C(=S)NC(=O)c2cccs2)CC1 | 3.67%
52 | CCc1c(C)nc(SCC(=O)N2CC(C)OC(C)C2)[nH]c1=O (centres unmarked) | -2.18%
53 | CC(=O)Nc1ccc2sc(NC(=O)CN3CCOCC3)nc2c1 | 14.4%
54 | CC(C)NC(=O)CS(=O)(=O)c1ccccc1 | 0.994%
55 | CC(C)OCCCNC(=O)c1cccc2c1C(=O)c1ccc(Cl)cc1S2(=O)=O | 8.81%
56 | COc1ccc(Cl)cc1NC(=O)C1CCN(C(=O)C2CC(=O)N(c3ccc(C)cc3)C2)CC1 (centres unmarked) | -10.5%
57 | CCNc1nc(N)nc(Oc2ccc(C(=O)OC)cc2)n1 | 14.8%
58 | Cc1cccc(CSc2ccc(-c3cccs3)nn2)c1 | 12.5%
59 | CNC(=S)N1CCN(c2ccc(Cl)c(Cl)c2)CC1 | 11.1%

From article PMC4336329 (PLoS ONE, 2015)
